# Experimental data: the BET-seq Pho4 binding data (Le et al. 2018)
# The other results are listed elsewhere or left out. Values were computed here from the reads of four pooled replicates and scatter widely.
# Target: T1, Pho4 (S. cerevisiae) (UniProt P07270)
# T1 sequence: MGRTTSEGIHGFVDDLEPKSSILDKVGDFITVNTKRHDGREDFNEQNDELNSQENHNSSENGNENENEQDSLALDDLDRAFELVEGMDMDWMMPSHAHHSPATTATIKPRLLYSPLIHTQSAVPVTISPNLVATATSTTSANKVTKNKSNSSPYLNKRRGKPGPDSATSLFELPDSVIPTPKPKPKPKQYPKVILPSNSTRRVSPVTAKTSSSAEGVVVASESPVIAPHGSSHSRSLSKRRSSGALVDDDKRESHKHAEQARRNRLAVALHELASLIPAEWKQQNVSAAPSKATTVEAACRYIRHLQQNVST
# Test: relative binding free energy (BET-seq); higher = weaker binding
# Conditions: reference: library average
row,Sequence,relative binding free energy
1,GGAATCACGTGTTTAA,0.15 kcal/mol
2,GTCGGCACGTGGGCTG,-0.1 kcal/mol
3,TTATACACGTGCATTG,0.03 kcal/mol
4,TTGAACACGTGCATGG,0.1 kcal/mol
5,AGTTGCACGTGTGAGC,-0.02 kcal/mol
6,AGGGTCACGTGTGGCG,0.18 kcal/mol
7,GGCGTCACGTGGGGAT,0.03 kcal/mol
8,TACTTCACGTGAGAGG,0.39 kcal/mol
9,GCGCACACGTGGTGGG,-0.09 kcal/mol
10,AAGGGCACGTGTTGAC,-0.01 kcal/mol
11,GTTTTCACGTGATTCA,0.38 kcal/mol
12,CGTGACACGTGTTTGC,0.04 kcal/mol
13,TCGGTCACGTGCGGTA,0.1 kcal/mol
14,GTGAGCACGTGGGGAA,-0.17 kcal/mol
15,ATTGACACGTGCTGTA,-0.06 kcal/mol
16,TATTTCACGTGTAGTT,0.27 kcal/mol
17,CGATACACGTGTATGT,0.18 kcal/mol
18,TAAGTCACGTGAAAGT,0.26 kcal/mol
19,GTAGCCACGTGGGGTA,-0.2 kcal/mol
20,GGGCGCACGTGTGTGA,0.05 kcal/mol
21,GGAATCACGTGGGGAC,0.14 kcal/mol
22,TTTTACACGTGGACAG,0.21 kcal/mol
23,TCGTGCACGTGTGCGT,-0.2 kcal/mol
24,TTTGGCACGTGAAGAA,0.09 kcal/mol
25,TCTTGCACGTGCGGAG,0.12 kcal/mol
26,ATCCGCACGTGGTTGG,-0.18 kcal/mol
27,AAAATCACGTGAAGGG,0.25 kcal/mol
